Assay results as given in PubChem BioAssay AID504832 (National Center for Advancing Translational Sciences (NCATS), 2011).
Among all 310,000 compounds or so, about 18,000 (5.8%) were called active. This list was built around the results that the source calls inconclusive (neither active nor inactive); the mix of calls is not that of the screen. The call rests on the fitted dose curve; in most records, active means well fitted inhibition curve with a large enough effect; inconclusive means small, poorly fitted or top-dose-only effect, or another doubt; inactive means no such curve, though single readings can be large or run the other way. Potencies of inconclusive entries are left out as doubtful fits.

assay: Primary qHTS for delayed death inhibitors of the malarial parasite plastid, 48 hour incubation; conditions: P. falciparum luciferase growth in erythrocytes; series mostly up to 28.7 µM
How it was run: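 Here the parasites carry a stable luciferase gene and grow inside erythrocytes in Albumax-based RPMI medium with compound for one erythrocytic cycle. Activity is scored as loss of luminescent signal.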
Potency means the concentration at half of the fitted maximal effect; tags describe the fitted curve by direction and shape.

SMILES | Potency
Cc1cc(C)nc(/N=C(\N)Nc2ccc(F)c([N+](=O)[O-])c2)n1 | inconclusive [inhibitor, partial curve]
COc1ccc(-n2nc3c(N4CCC(C(=O)NCc5ccco5)CC4)nnc(C)c3c2C)cc1 | inconclusive [inhibitor, single point]
COc1ccc(CNC(=O)Cn2c(=O)n(CC(=O)N3CCCCC3)c(=O)c3sccc32)cc1 | inconclusive [inhibitor, single point]
C=C(C)CSc1nnc([C@@H](N)Cc2c[nH]c3ccccc23)o1 | inconclusive [inhibitor, single point]
Cc1ccc(C)c(NC(=O)CSc2nnc(-c3n[nH]c4ccccc34)o2)c1 | inactive
COc1ccc(S(=O)(=O)N2CCN(C(=S)Nc3ccc(S(N)(=O)=O)cc3)CC2)cc1 | inconclusive [inhibitor, single point]
Cc1ccccc1S(=O)(=O)N(CC(O)CN1C(=O)NC(C)(C)C1=O)c1ccccc1 (stereo not drawn) | inactive
CC(=O)c1c(C)[nH]c(C(=O)COC(=O)COc2ccccc2F)c1C | inconclusive [inhibitor, full curve]
Cc1ccc(S(=O)(=O)N2[C@@H](c3ccc(Cl)cc3)C(C(=O)O)=CC[C@H]2c2ccc(C(C)C)cc2)cc1 | inactive
COc1ccc(N(CC(=O)Nc2cccc(C)c2C)S(=O)(=O)c2c(C)n[nH]c2C)cc1 | inconclusive [inhibitor, partial curve]
O=C(O)C(Cc1ccccc1-c1ccccc1)C(=O)O | inactive
Cc1ccccc1C(=O)Nc1ccnn1C1CCN(C(=O)C2CCOC2)CC1 (stereo not drawn) | inactive
Cc1cccn2c(=O)c3cc(S(=O)(=O)c4ccc(Br)cc4)c(=N)n(C4CCCCC4)c3nc12 | inconclusive [inhibitor, full curve]
O=C(c1ccccc1)c1ccc(OCCOCCN2CCN(Cc3ccccc3)CC2)cc1 | inconclusive [inhibitor, single point]
COCCN(C(=O)c1ccc(NC2CC2)c([N+](=O)[O-])c1)c1c(N)n(CC(C)C)c(=O)[nH]c1=O | inconclusive [inhibitor, partial curve, poor fit]
O=C(Cc1ccccc1F)Nc1ccccc1-c1ccccc1 | inactive
CC1CCN(C(=O)COC(=O)c2ccc(F)c(S(=O)(=O)N3CCOCC3)c2)CC1 | inactive
CCN(CC)S(=O)(=O)c1cc(-c2nn(C)c(=O)c3ccccc23)ccc1C | inconclusive [inhibitor, partial curve, poor fit]
O=C(N/N=C/c1c[nH]c2ccccc12)c1ccc(Cl)cc1 | inactive
COc1cccc(-c2ncc3ccccc3c2COC(=O)c2ccccc2C(=O)O)c1 | inconclusive [inhibitor, single point]
O=C(CN1C(=O)C2C3C=CC(C3)C2C1=O)Nc1ccc2c(c1)OCCO2 (stereo not drawn) | inactive
CCN(CC)c1nc2cc(C)ccc2cc1/C=C(\C#N)C(N)=O | inconclusive [inhibitor, single point]
O=C1C(Cl)=C(N2CCN(Cc3ccccc3)CC2)C(=O)N1Cc1ccccc1 | inconclusive [inhibitor, single point]

SMILES | Potency
COc1ccc(C)cc1Nc1n[n+](-c2ccccc2)c(-c2c(OC)ccc3ccccc23)s1 | active: 3.7 µM
O=C(NCCc1ccccc1)C1(S(=O)(=O)c2ccc(Cl)cc2)CC1 | inactive
CCCN1CCC(NC(=O)Cc2ccc(C)cc2)CC1 | inactive
COc1cccc(-c2cc(C(F)(F)F)n3nc(C(=O)N4CCC5(CC4)OCCO5)cc3n2)c1 | inconclusive [inhibitor, single point]
COc1ccc(NC(=O)NNC(=O)c2ccc(-c3ccccc3)cc2)cc1 | inactive
CCOc1ccc(Oc2c(/C=N/NC(C)=O)c(C)nn2-c2ccccc2)cc1 | inconclusive [inhibitor, single point]
O=C(O)COc1ccc(Br)cc1/C=N/O | inconclusive [inhibitor, single point]
CCCOC(=O)Oc1ccc2c(=O)c(Oc3cc(C)cc(C)c3)coc2c1 | inactive
O=C(CN1C(=O)c2ccccc2C1=O)NCCc1c[nH]c2ccc(Cl)cc12 | inactive
Cc1cc(C)c(NC(=O)c2cc(=O)c3ccccc3o2)c(C)c1 | inconclusive [inhibitor, partial curve]
CC1CCCN(S(=O)(=O)c2ccc(NC(=O)C3CC(=O)N(c4ccccc4)C3)cc2)C1 (stereo not drawn) | inactive
CN(C)C=Nc1ncc2c([nH]c3ccccc32)c1C#N | inconclusive [inhibitor, partial curve, poor fit]
Cc1ccc2c(CN3CCCc4ccccc43)cc(=O)oc2c1C | inconclusive [inhibitor, partial curve, poor fit]
COc1ccccc1C(=O)Nc1c2c(nn1-c1cccc(C)c1C)CS(=O)(=O)C2 | inconclusive [inhibitor, partial curve]
Cc1ccc(O)c(CNc2cnc3ccccc3c2)c1 | inconclusive [inhibitor, single point]
O=C(COC(=O)CC1CC2CCC1C2)Nc1cccc(S(=O)(=O)NC2=NCCCCC2)c1 (stereo not drawn) | inactive
CCC(CC)=N/N=C/c1c(O)n(CC)c2cc(C3=NNC(=O)CC3)ccc12 | inconclusive [inhibitor, partial curve]
COc1ccc(-c2nnc(SCc3ncc(-c4ccccc4)o3)o2)cc1 | inconclusive [inhibitor, partial curve, poor fit]
CCCn1c(=O)c(C(=O)Nc2cccc(C)c2)c(O)c2ccccc21 | inactive
CCOC(=O)c1ccc(N2CCN(c3ccc(F)cc3)CC2)c(NC(=O)Nc2cccc(OC)c2)c1 | inconclusive [inhibitor, partial curve, poor fit]
COc1cccc(/C=N/Nc2nn3cnnc3c3ccccc23)c1O | inconclusive [inhibitor, partial curve, poor fit]
O=C(COC(=O)/C=C/c1ccc(Cl)cc1)NCCc1ccccc1 | inactive
O=C(CSc1nc2ccc([N+](=O)[O-])cc2[nH]1)c1ccc2ccccc2c1 | inconclusive [inhibitor, partial curve, poor fit]

SMILES | Potency
Cc1ccc(-n2nc3c(=O)n(CCCC(=O)N4CCC(C(N)=O)CC4)nc(C)c3c2C)cc1 | active: 10.4 µM
O=C1C(Nc2ccccc2)=C(NS(=O)(=O)c2ccccc2)C(=O)c2ccccc21 | active: 10.4 µM
CCc1ccc(NC(=O)C2CCCN(S(=O)(=O)c3ccc4c(c3)CCCN4C(C)=O)C2)cc1 (stereo not drawn) | inconclusive [inhibitor, partial curve]
COc1ccc(C(=O)C(Cc2cc(C(C)=O)ccc2OC)N2CCCC2)cc1 (stereo not drawn) | inconclusive [inhibitor, single point]
COc1ccc2cc(CN(CCc3ccccc3)Cc3nnnn3Cc3ccco3)c(=O)[nH]c2c1 | active: 6.57 µM
CCOC(=O)c1cc(CC)sc1NC(=O)Cc1ccsc1 | inactive
O=C(Nc1ccc2oc(-c3ccncc3)nc2c1)c1ccc(Br)o1 | inactive
CC(C)(C)OC(=O)N1Cc2ccccc2C[C@H]1C(=O)NC1CCCC1 | inconclusive [inhibitor, partial curve, poor fit]
O=C(Nc1ccccc1N1CCCC1)C1CC(=O)N(Cc2ccccc2)C1 (stereo not drawn) | inactive
CCCn1nc(C(=O)Nc2ccc3c(c2)OCO3)c2ccccc2c1=O | inconclusive [inhibitor, partial curve, poor fit]
COc1ccc(OC)c(C(c2nnnn2CCC(C)C)N2CCN(C(=O)c3ccco3)CC2)c1 (stereo not drawn) | inconclusive [inhibitor, partial curve]
Cc1nc(NC(=O)c2oc3ccccc3c2C)sc1C(=O)N(C)C | inactive
O=C(CCc1ccccc1Cl)N1CCN(S(=O)(=O)c2ccccc2)CC1 | inconclusive [inhibitor, single point]
COc1cc(NC(=O)CCN2CCN(C/C=C/c3ccccc3)CC2)cc(OC)c1 | inconclusive [inhibitor, single point]
CCN(CC(=O)Nc1ccc(OC)cc1)C(=O)Cc1coc2cc(C)c(C)cc12 | inconclusive [inhibitor, single point]
COc1cccc([C@@H]2CC=C(C(=O)O)[C@H](c3ccc(Cl)cc3)N2S(=O)(=O)c2ccc(C)cc2)c1 | inconclusive [inhibitor, single point]
COc1ccc(C(C(=O)NCc2ccc(F)cc2)N(Cc2cccnc2)C(=O)c2snc(C(N)=O)c2N)cc1 (stereo not drawn) | inconclusive [inhibitor, partial curve, poor fit]
CCOc1ccccc1C(=O)N(CN1CCCC1=O)c1ccc(C)c(Cl)c1 | inconclusive [inhibitor, single point]
CN(C)S(=O)(=O)Nc1ccc(Oc2ccccc2)cc1 | inactive
CCCCN(C)Cc1cc(=O)oc2cc3c(cc12)CCCC3 | inconclusive [inhibitor, single point]
O=C(Cc1ccc(S(=O)(=O)N2CCOCC2)s1)Nc1cc(C(F)(F)F)ccc1N1CCCC1 | active: 11.7 µM
CC1(C)CC(=NOC(=O)c2ccccc2)CC(C)(C)N1 | inconclusive [inhibitor, single point]
